Measurements published in PubChem BioAssay AID652106 (National Center for Advancing Translational Sciences (NCATS), 2013).
Out of some 370,000 compounds screened, about 500 (0.14%) were called active. The shares of active, inactive and inconclusive entries below differ from those in the screen. Calls come from the whole dose curve; as a rule, active = well fitted activation curve with a large enough effect; inconclusive = small, poorly fitted or top-dose-only effect; inactive = no such curve, though single readings can be large or run the other way. Potencies of inconclusive entries are left out as doubtful fits.

Assay: qHTS of alpha-syn Inhibitors; note: nearly all actives have a fitted effect of over 65% in size
Details: Yeast expressing alpha-synuclein, BacTiter-Glo, 24 h; Potency: growth rescue unless noted; series mostly up to 46.1 µM
Method in brief: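 Screening used galactose-induced yeast with toxic alpha-synuclein levels, exposed to compound for 24 hr at 30 deg C. Cell growth, read with BacTiter-Glo luminescence, gave the measured signal.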
Potency is the fitted concentration of half-maximal effect; tags give direction and shape of the fitted curve.

Question: With `CCOc1ccc(/C=N/NC(=O)C2(O)c3ccccc3-c3ccccc32)cc1` as the compound, how does the Potency read?
Answer: inconclusive [activator, single point]

Question: With `S=C1NC(c2cccs2)=CC(c2ccc(Br)cc2)N1` (centres undefined) as the compound, how does the Potency read?
Answer: inactive

Question: For `Fc1ccc2nncc(SCc3ccccc3Cl)c2c1`, which Potency is on record?
Answer: inconclusive [activator, full curve]

Question: For `O=C(c1ccc(Cl)cc1)c1cc(-c2ccccn2)c(N2CCOCC2)s1`, which Potency is on record?
Answer: inactive

Question: With `COc1ccc(OC)c(CCNC(=O)CCc2cn(C)c3ccccc23)c1` as the compound, how does the Potency read?
Answer: inactive

Question: For `Cc1ccc(S(=O)(=O)NC(=O)C2(C)CCN2C(=O)CCc2ccc(Cl)cc2Cl)nc1` (centres undefined), which Potency is on record?
Answer: inconclusive [activator, single point]

Question: Which Potency does the source give for `O=C(O)Cc1ccc(C(=O)c2ccc(Cl)cc2)s1` here?
Answer: inconclusive [activator, single point]

Question: With `COc1ccccc1Cc1c(-c2ccccc2)nc2c(C)cc(Br)cn12` as the compound, how does the Potency read?
Answer: inconclusive [activator, single point]

Question: Which Potency does the source give for `Cc1ccc(C(=O)C(SC(C)(C)C)n2cncn2)cc1` (centres undefined) here?
Answer: inconclusive [activator, full curve, poor fit]

Question: With `COc1ccc(/C=C/C(=O)NCCn2c(C)cc3ccccc32)cc1OC` as the compound, how does the Potency read?
Answer: inconclusive [activator, single point]

Question: Which Potency does the source give for `O=C(OCC(=O)N1CCCCCC1)c1ccc([N+](=O)[O-])cc1Cl` here?
Answer: inconclusive [activator, single point]

Question: With `COc1ccc(CCNC(=O)COc2ccc(S(=O)(=O)NC3CCCCC3)cc2Cl)cc1` as the compound, how does the Potency read?
Answer: inconclusive [activator, single point]

Question: For `CN1/C(=C\C(=O)COC(=O)c2ccc(O)c(O)c2)C(C)(C)c2ccccc21`, which Potency is on record?
Answer: inconclusive [activator, single point]

Question: With `COc1cccc(C(O)c2nc(-c3ccc(F)c(Cl)c3)cs2)c1` (centres undefined) as the compound, how does the Potency read?
Answer: inconclusive [activator, partial curve]

Question: For `COc1ccc(Cl)cc1NS(=O)(=O)c1ccc(OC)c(OC)c1`, which Potency is on record?
Answer: inactive

Question: For `CC1=Cc2ccccc2C(C#N)N1C(=O)c1ccccc1` (centres undefined), which Potency is on record?
Answer: inconclusive [activator, full curve, poor fit]

Question: With `Cc1cc2ncn(/N=C/c3ccc([N+](=O)[O-])o3)c2cc1C` as the compound, how does the Potency read?
Answer: inconclusive [activator, partial curve]

Question: For `O=C1C=C(Nc2ccccc2)C(=O)c2ccccc21`, which Potency is on record?
Answer: inactive

Question: With `C[C@@H]1CN([C@H](C)CO)C(=O)c2cc(C#CC3CCCCC3)cnc2O[C@H]1CN(C)Cc1cccnc1` as the compound, how does the Potency read?
Answer: inconclusive [activator, single point]
